Reference: paper PMC4336329 (PLoS ONE, 2015)
The campaign covered roughly 310,000 compounds. About 2,200 (0.71%) showed an effect of 50% or more. The effect is printed as a negative number. The list shows a part of the results.

molecular target: human ether-à-go-go-related gene (hERG) potassium channel (human, UniProt Q12809); assay: primary screen, population patch clamp on CHO cells stably expressing hERG
Sequence (Q12809 whole entry, looked up): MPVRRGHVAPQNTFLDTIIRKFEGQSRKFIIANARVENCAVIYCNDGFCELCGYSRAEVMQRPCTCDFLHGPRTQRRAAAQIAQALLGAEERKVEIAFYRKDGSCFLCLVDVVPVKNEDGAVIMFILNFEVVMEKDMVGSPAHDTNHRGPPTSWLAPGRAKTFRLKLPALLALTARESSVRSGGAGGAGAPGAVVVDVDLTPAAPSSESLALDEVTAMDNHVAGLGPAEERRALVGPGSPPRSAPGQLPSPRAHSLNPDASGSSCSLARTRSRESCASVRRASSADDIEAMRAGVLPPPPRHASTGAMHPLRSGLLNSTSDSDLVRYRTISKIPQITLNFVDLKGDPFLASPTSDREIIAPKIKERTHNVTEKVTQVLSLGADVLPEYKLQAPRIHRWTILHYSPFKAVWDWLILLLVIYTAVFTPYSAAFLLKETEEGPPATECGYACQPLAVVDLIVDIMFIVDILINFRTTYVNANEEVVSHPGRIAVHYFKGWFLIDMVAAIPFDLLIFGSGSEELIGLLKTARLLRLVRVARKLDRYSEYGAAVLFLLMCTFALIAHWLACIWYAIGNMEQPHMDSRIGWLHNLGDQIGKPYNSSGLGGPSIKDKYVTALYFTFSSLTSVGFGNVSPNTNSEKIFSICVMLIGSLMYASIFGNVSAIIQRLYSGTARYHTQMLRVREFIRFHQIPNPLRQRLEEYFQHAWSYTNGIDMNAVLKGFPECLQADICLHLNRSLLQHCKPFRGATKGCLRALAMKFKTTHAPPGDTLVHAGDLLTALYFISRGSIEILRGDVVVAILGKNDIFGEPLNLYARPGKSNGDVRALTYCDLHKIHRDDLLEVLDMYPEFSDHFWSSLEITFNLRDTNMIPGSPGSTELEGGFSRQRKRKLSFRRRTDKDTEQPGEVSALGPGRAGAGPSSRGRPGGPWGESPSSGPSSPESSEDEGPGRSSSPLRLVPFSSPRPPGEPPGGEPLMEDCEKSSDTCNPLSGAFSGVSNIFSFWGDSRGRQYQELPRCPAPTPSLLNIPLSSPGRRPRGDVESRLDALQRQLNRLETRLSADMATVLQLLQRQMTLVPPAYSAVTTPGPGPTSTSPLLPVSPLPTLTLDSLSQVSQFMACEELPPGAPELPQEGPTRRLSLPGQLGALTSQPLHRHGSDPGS

First: COc1ccccc1NS(=O)(=O)c1ccc(O)c(C(=O)OCC(=O)N2CCc3ccccc32)c1
Second: Cc1ccc(S(=O)(=O)CCSc2cccc(C(=O)Nc3ccccc3C(=O)O)c2)cc1
The “hERG current change (%, negative = inhibition) at 1uM” value of the first is lower: 1.42% for the first, 13.7% for the second.

Compared with COc1ccc(CC(=O)c2ccc(O)cc2O)cc1, COc1ccc(C2CC2C(C)=O)cc1 (centres unmarked) is higher in “hERG current change (%, negative = inhibition) at 1uM” value: 6.47% for the first, 13.4% for the second.

Compared with CCOc1ccc(OCc2cccc(C(=O)N3CCCCCC3)c2)cc1, COc1ccc(N2C(=O)CCC(C(=O)N3CCCCCC3)C2c2ccc(OC)c(OC)c2)cc1 (centres unmarked) is higher in “hERG current change (%, negative = inhibition) at 1uM” value: -31.9% for the first, 8% for the second.

Going from O=C(CSc1nc(-c2ccco2)cc(C(F)(F)F)n1)N1CCCc2ccccc21 to Cc1ccc2c(CN3CCCc4ccccc43)cc(=O)oc2c1C, the “hERG current change (%, negative = inhibition) at 1uM” value rises from 3.01% to 16%.

Compared with Cc1sc(NC(=O)CCC(=O)O)c(C#N)c1C, CCOC(=O)Cc1csc(NC(=O)c2ccc(C)o2)n1 is higher in “hERG current change (%, negative = inhibition) at 1uM” value: 9.27% for the first, 14.9% for the second.

First: CCc1ncc(C)[nH]1
Second: CCc1ccc(NC(=O)CCc2nc3ccccc3[nH]2)cc1
The “hERG current change (%, negative = inhibition) at 1uM” value of the first is higher: 16.3% for the first, 2.63% for the second.

Going from CCC(O)CC(C(=O)NNc1ccccc1)C(=O)NNc1ccccc1 (centres unmarked) to O=C(O)C(O)(c1ccccc1)C(O)c1ccccc1 (centres unmarked), the “hERG current change (%, negative = inhibition) at 1uM” value rises from 11.5% to 11.8%.

Going from Cl.O=C(NN1CCN(Cc2ccccc2)CC1)c1ccc(Cl)cc1 to O=C(CNC(=O)c1cccs1)NCCN1CCN(Cc2ccccc2)CC1, the “hERG current change (%, negative = inhibition) at 1uM” value rises from -11.2% to -4.3%.

Going from Cc1onc(-c2c(Cl)cccc2Cl)c1C(=O)N1CCCCC1 to O=C(CNS(=O)(=O)c1ccc(C(=O)N2CCCCC2)cc1)N1CCCCC1, the “hERG current change (%, negative = inhibition) at 1uM” value rises from 4.72% to 11.1%.

First: O=S(=O)(Nc1ccc(F)cc1)c1ccc(NS(=O)(=O)c2cccs2)cc1
Second: CCOc1ccc(NC(=O)CCNS(=O)(=O)c2ccc3c(c2)CCC(=O)N3)cc1
The “hERG current change (%, negative = inhibition) at 1uM” value of the first is higher: 10.1% for the first, 4.76% for the second.

First: COC(=O)c1ccc(CN2CCC(CO)(Cc3cccc(OC)c3)CC2)cc1
Second: CCN(Cc1ccccc1)S(=O)(=O)c1cc(C(=O)O)ccc1OC
The “hERG current change (%, negative = inhibition) at 1uM” value of the first is lower: -45.3% for the first, 15.7% for the second.

Going from CC(C)(C)OC(=O)N1CCC(C(=O)N[C@H](C(=O)O)c2ccccc2)(c2ccccc2)CC1 to Cc1nn(-c2ccccc2)c(C)c1/C=N/N1CCN(c2ccccc2)CC1, the “hERG current change (%, negative = inhibition) at 1uM” value falls from -1.74% to -4.96%.

Compared with CC(=O)c1ccc(N2CCN(S(=O)(=O)c3ccc4c(c3)CC(C)N4C(=O)C3CC3)CC2)cc1 (centres unmarked), CCN1CCN(S(=O)(=O)c2ccc(Cl)c(C(=O)NC3CCC(C)CC3)c2)CC1 (centres unmarked) is lower in “hERG current change (%, negative = inhibition) at 1uM” value: 17.4% for the first, 14.2% for the second.

First: O=C(N/N=C/c1ccc(-c2cccc([N+](=O)[O-])c2)o1)c1ccc([N+](=O)[O-])cc1
Second: O=C(NCC1CCN(C(=O)c2cccc([N+](=O)[O-])c2)CC1)c1cccc([N+](=O)[O-])c1
The “hERG current change (%, negative = inhibition) at 1uM” value of the first is lower: -8.58% for the first, -5.98% for the second.

First: COc1ccc(OC)c(NC(=O)c2csc(Cl)c2OC)c1
Second: CCCOc1ccc2[nH]c(C(=O)N/N=C/c3cc(OC)c(OC)c(OC)c3)cc2c1
The “hERG current change (%, negative = inhibition) at 1uM” value of the first is higher: 16.7% for the first, 15.8% for the second.

Going from Cc1ccc(NC(=O)C2CCC(CNC(=O)[C@@H]3Cc4ccccc4CN3)CC2)cc1 (some centres unmarked) to COC(=O)C1=C(c2cc3ccccc3s2)C[C@@H]2CC[C@H]1N2C(=O)NCCCOC(C)C, the “hERG current change (%, negative = inhibition) at 1uM” value falls from 17.8% to 2.84%.

First: C/C(=N\O)c1ccc2[nH]ccc2c1
Second: Cc1cc(=O)n(-c2ccc(C(=O)O)cc2)[nH]1
The “hERG current change (%, negative = inhibition) at 1uM” value of the first is lower: 6.61% for the first, 17.4% for the second.

First: COc1ccc(NC(=O)COC(=O)/C=C/c2ccc(OC)c(S(=O)(=O)N3CCOCC3)c2)cc1
Second: COc1ccc(C(=O)Oc2ccc(F)cc2C(=O)/C=C/c2ccc(OC)c(OC)c2)cc1
The “hERG current change (%, negative = inhibition) at 1uM” value of the first is lower: -2.62% for the first, 0.79% for the second.

First: Cc1cc(C)n(C2CC(=O)N(c3cccc(Cl)c3)C2=O)n1 (centres unmarked)
Second: Cc1cc(C(=O)Cn2cncn2)c(C)n1CCc1ccc(F)cc1
The “hERG current change (%, negative = inhibition) at 1uM” value of the first is higher: 14.6% for the first, 3.78% for the second.

Going from CC(O)(CS(=O)(=O)c1cccc(C(F)(F)F)c1)C(=O)Nc1ccc(C(F)(F)F)cc1 (centres unmarked) to Cc1cc[n+](CC(=O)Nc2cc(C(F)(F)F)ccc2Cl)cc1.[Cl-], the “hERG current change (%, negative = inhibition) at 1uM” value rises from -2.53% to 5.29%.

First: C=CCn1ccc(O)c(Cc2ccc(Cl)cc2)c1=O
Second: O=C(c1cnn(-c2ccc(Cl)cc2)c1)c1ccccc1O
The “hERG current change (%, negative = inhibition) at 1uM” value of the first is higher: 6.53% for the first, -41.9% for the second.

Compared with O=C(Cc1ccc(Br)cc1)N1CCN(c2ccc(F)cc2)CC1, COc1ccc(N2CCN(S(C)(=O)=O)CC2)cc1 is higher in “hERG current change (%, negative = inhibition) at 1uM” value: -4.48% for the first, 14.2% for the second.

Going from Cc1ccc(/C=N/NC(=S)Nc2cccc(S(=O)(=O)N(C)C)c2)o1 to Cc1cccc(N/N=C(\C=N\N)C(=O)c2ccc(Br)cc2)c1, the “hERG current change (%, negative = inhibition) at 1uM” value rises from 6.74% to 17.4%.

Going from c1ccc(C[C@H]2CNCCN2CCCCC2CCCCC2)cc1 to O=C(CCCc1nc(-c2ccccc2)no1)NC1CCCCC1, the “hERG current change (%, negative = inhibition) at 1uM” value rises from -1.24% to 14.6%.

Going from Cc1noc(C)c1S(=O)(=O)N1CCCC(C(=O)NCC2CCCO2)C1 (centres unmarked) to O=C(OCC(=O)N1CCCC1=O)C1CCN(S(=O)(=O)c2c(Cl)cccc2Cl)CC1, the “hERG current change (%, negative = inhibition) at 1uM” value falls from 8.15% to 4.94%.

Going from COc1ccc2c(c1)SCCC2=O to CCC(C)C(=O)Nc1nc2ccc(OC)cc2s1 (centres unmarked), the “hERG current change (%, negative = inhibition) at 1uM” value rises from 3.47% to 9.62%.

Going from CCOC(=O)/C=C/c1ccc2oc3ccccc3c(=O)c2c1 to COc1ccccc1-n1nc(C(=O)NCc2ccco2)c2ccccc2c1=O, the “hERG current change (%, negative = inhibition) at 1uM” value falls from 16.5% to 8.64%.

Compared with COC(=O)C1=C(C)NC(=S)NC1c1ccco1 (centres unmarked), COC(=O)C1=C(C)Nc2nc(SCc3ccccc3)[nH]c(=O)c2C1c1cccs1 (centres unmarked) is lower in “hERG current change (%, negative = inhibition) at 1uM” value: 15.7% for the first, 9.12% for the second.

First: N#CC1=C(N)N(c2ccccc2Sc2ccccc2)C(=O)C1
Second: CCN(C(=O)CN1C=NS(=O)(=O)c2ccccc21)c1ccccc1
The “hERG current change (%, negative = inhibition) at 1uM” value of the first is lower: 4.35% for the first, 11.8% for the second.

First: CN1CCN(C(=O)CSc2ccc(Cl)cc2)CC1
Second: O=C(OCC(=O)N1CCCC1)c1ccc(O)cc1
The “hERG current change (%, negative = inhibition) at 1uM” value of the first is higher: 19.4% for the first, 10.2% for the second.

Going from CN(O)/C=C/C(=O)c1ccc(Br)cc1 to NC(=O)c1ccccc1Br, the “hERG current change (%, negative = inhibition) at 1uM” value rises from -4.85% to 3.7%.

First: O=C(CCNS(=O)(=O)c1ccc(Br)cc1)NC1CCCCC1
Second: O=C(COC(=O)C1CCN(C(=O)c2ccc(Cl)cc2)CC1)NC1CCS(=O)(=O)C1 (centres unmarked)
The “hERG current change (%, negative = inhibition) at 1uM” value of the first is lower: 12.6% for the first, 15% for the second.

Compared with Cc1ccc(Cn2c(=O)c3cccnc3n(CC(=O)Nc3cccc(C(F)(F)F)c3)c2=O)cc1, N#Cc1cccc(NC(=O)COC(=O)c2ccc3c(=O)n4c(nc3c2)CCC4)c1 is lower in “hERG current change (%, negative = inhibition) at 1uM” value: 6.41% for the first, 5.47% for the second.

Going from Cn1ccnc1SCC(=O)Nc1ccc(F)c([N+](=O)[O-])c1 to COc1cc(CN2CCN(c3ccccc3C)CC2)cc([N+](=O)[O-])c1O, the “hERG current change (%, negative = inhibition) at 1uM” value falls from 8.93% to 7.17%.

Going from CCN(CC)c1ccc(N2C(=O)/C(=C/c3cccnc3)SC2=S)cc1 to CCSc1nnc(-c2cc(Br)ccc2N=Cc2c(C)[nH]n(-c3ccccc3)c2=O)c(=O)[nH]1, the “hERG current change (%, negative = inhibition) at 1uM” value falls from 12.4% to 6.56%.

First: S=C(NCc1ccccc1)Nc1cccc2ccccc12
Second: O=[N+]([O-])c1cc(-c2nc3nc4ccccc4nc3n2CCc2ccccc2)cc([N+](=O)[O-])c1
The “hERG current change (%, negative = inhibition) at 1uM” value of the first is lower: 7.97% for the first, 9.16% for the second.

Compared with CCc1c(C(=O)N/N=C/c2cccs2)nnn1-c1nonc1N, CC/C(=N/Nc1cccc(Cl)c1)c1cnnc(SC)n1 is higher in “hERG current change (%, negative = inhibition) at 1uM” value: 11.4% for the first, 16.1% for the second.

First: O=C(Nc1cccc(C(=O)N2CCOCC2)c1)c1cccnc1
Second: Cc1nn(Cc2ccccc2Cl)c2sc(C(=O)Nc3ccccc3N3CCOCC3)cc12
The “hERG current change (%, negative = inhibition) at 1uM” value of the first is higher: 16.1% for the first, 9.02% for the second.

First: CNS(=O)(=O)c1ccc(NCC2COc3ccccc3O2)c([N+](=O)[O-])c1 (centres unmarked)
Second: COc1cccc(C(=O)NCCS(=O)(=O)NCc2ccco2)c1
The “hERG current change (%, negative = inhibition) at 1uM” value of the first is lower: 0.124% for the first, 6.15% for the second.

First: CCC(CC)C(=O)c1c[nH]c(C(=O)NCCOC)c1
Second: CCN=C1Sc2nc3ccc(OCC)cc3cc2CN1CCOC.Cl
The “hERG current change (%, negative = inhibition) at 1uM” value of the first is higher: 17.8% for the first, 4.24% for the second.

Going from O=Cc1c(NCc2ccco2)nc2ccccn2c1=O to O=S(=O)(Nc1nc2ccccc2nc1N1CCN(CCO)CC1)c1cc(F)ccc1F, the “hERG current change (%, negative = inhibition) at 1uM” value falls from 7.85% to 5.69%.

Going from CSc1ccccc1NC(=O)C1C2CCC(C2)C1C(=O)O (centres unmarked) to COC(=O)c1c(S(=O)(=O)NCc2ccccc2)sc(C(=O)O)c1C, the “hERG current change (%, negative = inhibition) at 1uM” value falls from 13.3% to 10.6%.

Going from Cc1cc(C)cc(NCc2cc(=O)oc3cc(C)c(O)cc23)c1 to COc1ccc(CNS(=O)(=O)c2cc(-c3cc(C)no3)ccc2C)cc1OC, the “hERG current change (%, negative = inhibition) at 1uM” value falls from 10.3% to 4.36%.

First: Cl.O=C(CN1CCCC1)NCC12CC3CC(CC(C3)C1)C2
Second: COc1cccc(OC)c1C(=O)NCC12CC3CC(C1)CC(CNC(=O)c1c(OC)cccc1OC)(C3)C2
The “hERG current change (%, negative = inhibition) at 1uM” value of the first is lower: 10.1% for the first, 11.7% for the second.

CC(=O)N1[C@H](Cc2ccccc2)C=C[C@]1(C)C(=O)NCCN1CCOCC1 was tested, and the “hERG current change (%, negative = inhibition) at 1uM” value was 13.1%.
